Publication PMC11628327
No constants are given. Whether binding was seen depends on the method and setting. In cells and extracts the contact can be indirect. Some entries that bind do so weakly or less than the wild type. Values belong to the substance of their own block, whether it stands above or below them.

Chains of the proteins cited; added tags and fusions are not shown.
UniProt A4L7N3: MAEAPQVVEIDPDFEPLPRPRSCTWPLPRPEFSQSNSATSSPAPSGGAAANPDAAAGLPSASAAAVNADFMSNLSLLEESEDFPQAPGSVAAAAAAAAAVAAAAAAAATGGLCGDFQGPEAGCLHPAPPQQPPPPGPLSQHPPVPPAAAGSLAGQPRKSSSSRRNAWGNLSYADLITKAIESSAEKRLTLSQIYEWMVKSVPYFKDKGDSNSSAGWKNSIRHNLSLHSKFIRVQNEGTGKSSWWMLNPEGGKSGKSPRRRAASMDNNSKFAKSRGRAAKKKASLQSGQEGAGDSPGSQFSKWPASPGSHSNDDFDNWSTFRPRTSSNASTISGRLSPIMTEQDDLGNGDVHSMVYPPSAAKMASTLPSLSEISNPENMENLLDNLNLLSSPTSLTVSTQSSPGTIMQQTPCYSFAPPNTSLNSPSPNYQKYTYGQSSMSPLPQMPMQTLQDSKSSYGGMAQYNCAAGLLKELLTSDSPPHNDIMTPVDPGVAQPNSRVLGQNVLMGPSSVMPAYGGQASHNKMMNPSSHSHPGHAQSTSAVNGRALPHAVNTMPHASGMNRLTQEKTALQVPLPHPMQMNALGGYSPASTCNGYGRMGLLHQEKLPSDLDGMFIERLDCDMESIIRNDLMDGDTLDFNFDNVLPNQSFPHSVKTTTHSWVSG
UniProt Q9R1E0: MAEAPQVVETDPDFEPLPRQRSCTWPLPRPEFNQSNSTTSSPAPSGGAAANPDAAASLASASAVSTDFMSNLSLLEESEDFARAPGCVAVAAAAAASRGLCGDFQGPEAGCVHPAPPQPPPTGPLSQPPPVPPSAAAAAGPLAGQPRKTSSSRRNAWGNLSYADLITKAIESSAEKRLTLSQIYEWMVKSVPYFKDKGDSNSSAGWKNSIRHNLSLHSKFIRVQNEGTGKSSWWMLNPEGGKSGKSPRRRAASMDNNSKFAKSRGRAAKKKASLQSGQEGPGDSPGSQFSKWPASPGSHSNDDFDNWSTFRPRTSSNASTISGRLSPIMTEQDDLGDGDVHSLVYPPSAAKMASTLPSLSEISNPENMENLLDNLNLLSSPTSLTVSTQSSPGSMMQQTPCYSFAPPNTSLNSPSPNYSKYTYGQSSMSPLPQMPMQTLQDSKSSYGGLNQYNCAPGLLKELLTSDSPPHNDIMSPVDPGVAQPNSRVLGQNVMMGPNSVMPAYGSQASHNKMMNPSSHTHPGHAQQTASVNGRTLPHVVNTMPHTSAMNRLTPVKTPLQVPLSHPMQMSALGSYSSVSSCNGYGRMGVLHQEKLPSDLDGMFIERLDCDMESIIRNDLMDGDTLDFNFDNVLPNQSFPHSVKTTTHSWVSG
UniProt P40763: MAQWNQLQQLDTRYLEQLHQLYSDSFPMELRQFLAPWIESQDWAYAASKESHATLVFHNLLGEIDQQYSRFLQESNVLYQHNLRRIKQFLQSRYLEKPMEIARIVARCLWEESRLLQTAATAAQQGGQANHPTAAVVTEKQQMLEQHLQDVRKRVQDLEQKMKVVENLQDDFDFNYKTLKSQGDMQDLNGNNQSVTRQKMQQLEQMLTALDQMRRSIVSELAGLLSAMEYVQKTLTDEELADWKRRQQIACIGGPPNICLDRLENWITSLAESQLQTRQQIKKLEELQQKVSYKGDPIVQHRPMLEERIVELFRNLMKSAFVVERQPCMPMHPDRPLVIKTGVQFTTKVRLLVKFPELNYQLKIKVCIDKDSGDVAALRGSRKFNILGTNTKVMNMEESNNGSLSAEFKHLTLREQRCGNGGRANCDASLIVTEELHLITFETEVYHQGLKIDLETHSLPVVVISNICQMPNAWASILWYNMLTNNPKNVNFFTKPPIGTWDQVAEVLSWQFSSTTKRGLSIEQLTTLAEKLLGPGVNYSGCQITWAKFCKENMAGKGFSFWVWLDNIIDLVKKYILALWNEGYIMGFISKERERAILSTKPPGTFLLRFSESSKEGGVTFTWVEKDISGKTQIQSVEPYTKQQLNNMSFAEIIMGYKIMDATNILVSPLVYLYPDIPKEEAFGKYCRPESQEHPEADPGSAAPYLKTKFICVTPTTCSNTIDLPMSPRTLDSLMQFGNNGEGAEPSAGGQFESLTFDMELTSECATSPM
UniProt Q19S50: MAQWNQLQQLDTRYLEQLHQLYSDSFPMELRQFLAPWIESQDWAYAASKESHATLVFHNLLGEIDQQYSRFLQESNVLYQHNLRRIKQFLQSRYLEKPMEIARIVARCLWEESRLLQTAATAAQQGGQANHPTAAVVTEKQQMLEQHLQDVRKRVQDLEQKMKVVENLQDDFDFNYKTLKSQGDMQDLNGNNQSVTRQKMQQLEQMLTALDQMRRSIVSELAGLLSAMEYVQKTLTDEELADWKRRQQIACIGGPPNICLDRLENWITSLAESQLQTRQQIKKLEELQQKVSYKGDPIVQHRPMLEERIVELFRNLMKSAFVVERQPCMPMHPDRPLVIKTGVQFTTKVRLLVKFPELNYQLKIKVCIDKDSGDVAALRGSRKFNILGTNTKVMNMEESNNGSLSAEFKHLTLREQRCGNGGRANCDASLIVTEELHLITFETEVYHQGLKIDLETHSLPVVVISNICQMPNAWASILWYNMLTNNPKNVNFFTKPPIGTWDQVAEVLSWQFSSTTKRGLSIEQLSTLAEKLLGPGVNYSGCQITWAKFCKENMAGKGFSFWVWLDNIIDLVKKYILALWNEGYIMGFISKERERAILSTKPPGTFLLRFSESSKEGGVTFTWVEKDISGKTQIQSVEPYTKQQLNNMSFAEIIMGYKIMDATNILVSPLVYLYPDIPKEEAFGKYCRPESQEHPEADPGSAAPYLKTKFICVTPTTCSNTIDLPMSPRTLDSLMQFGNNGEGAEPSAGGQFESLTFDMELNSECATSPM
UniProt P42227: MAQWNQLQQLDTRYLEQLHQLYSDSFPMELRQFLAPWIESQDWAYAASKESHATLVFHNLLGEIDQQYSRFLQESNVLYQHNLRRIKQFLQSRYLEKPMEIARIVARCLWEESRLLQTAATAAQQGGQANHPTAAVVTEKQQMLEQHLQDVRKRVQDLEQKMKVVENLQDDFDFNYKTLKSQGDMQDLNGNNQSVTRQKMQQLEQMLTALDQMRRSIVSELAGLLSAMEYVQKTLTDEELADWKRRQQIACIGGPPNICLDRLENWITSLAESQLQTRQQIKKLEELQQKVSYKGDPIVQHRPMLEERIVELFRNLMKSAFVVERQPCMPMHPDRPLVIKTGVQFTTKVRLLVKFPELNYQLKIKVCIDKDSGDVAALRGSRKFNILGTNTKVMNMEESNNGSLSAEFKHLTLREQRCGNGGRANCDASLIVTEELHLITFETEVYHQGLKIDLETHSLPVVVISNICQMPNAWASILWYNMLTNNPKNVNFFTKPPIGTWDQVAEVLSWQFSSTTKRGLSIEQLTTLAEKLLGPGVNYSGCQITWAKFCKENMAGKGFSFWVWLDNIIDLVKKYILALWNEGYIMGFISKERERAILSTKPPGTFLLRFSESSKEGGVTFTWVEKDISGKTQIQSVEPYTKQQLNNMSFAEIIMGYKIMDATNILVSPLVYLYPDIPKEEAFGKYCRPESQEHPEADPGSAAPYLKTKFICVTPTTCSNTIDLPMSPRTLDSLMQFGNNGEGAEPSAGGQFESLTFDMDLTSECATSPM
UniProt P31749: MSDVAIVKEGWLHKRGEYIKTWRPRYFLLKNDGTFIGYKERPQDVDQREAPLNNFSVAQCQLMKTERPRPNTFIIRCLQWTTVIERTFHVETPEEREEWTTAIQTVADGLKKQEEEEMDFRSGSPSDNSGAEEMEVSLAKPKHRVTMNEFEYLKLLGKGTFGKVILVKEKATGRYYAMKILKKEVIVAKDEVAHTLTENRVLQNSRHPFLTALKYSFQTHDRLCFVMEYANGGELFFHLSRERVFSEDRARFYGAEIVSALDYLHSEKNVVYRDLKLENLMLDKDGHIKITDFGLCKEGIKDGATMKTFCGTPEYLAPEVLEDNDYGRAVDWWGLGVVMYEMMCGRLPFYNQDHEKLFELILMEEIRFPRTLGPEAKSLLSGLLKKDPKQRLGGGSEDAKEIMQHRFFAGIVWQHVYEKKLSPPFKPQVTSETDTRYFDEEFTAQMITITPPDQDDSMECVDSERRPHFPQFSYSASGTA

What was measured:
[1] = molecular target: FOXO1 (endogenous, porcine granulosa cells) (porcine (endogenous in porcine GCs)) (UniProt A4L7N3); assay: co-IP; endogenous proteins; cytoplasmic and nuclear fractions of GCs freshly isolated from 26 porcine follicles (~4 mm), grouped as low (L) or high (H) hypoxia by HIF-1α level; IP, immunoblot
[2] = molecular target: FLAG-tagged wild-type FOXO1 (FOXO1-WT) (UniProt Q9R1E0); assay: co-IP; porcine GCs, FOXO1-siRNA 12 h, then FLAG-tagged FOXO1 vectors, hypoxia (1% O2) 12 h; cytoplasmic and nuclear fractions; IP with anti-FLAG-tag, immunoblot
[3] = molecular target: FOXO1 (endogenous, porcine granulosa cells) (porcine (endogenous in porcine GCs)) (UniProt A4L7N3); assay: co-IP; endogenous proteins; cytoplasmic and nuclear fractions of cultured porcine GCs kept 12 h under normoxia (21% O2) or hypoxia (1% O2); IP with anti-FOXO1, Protein A/G magnetic beads, 4°C overnight, immunoblot
[4] = molecular target: FLAG-tagged wild-type FOXO1 (FOXO1-WT) (UniProt Q9R1E0); assay: co-IP; NIH/3T3 cells, endogenous FOXO1 silenced, FLAG-tagged FOXO1 vectors, hypoxia; cytoplasmic and nuclear fractions; IP, immunoblot
[5] = molecular target: FLAG-tagged wild-type FOXO1 (FOXO1-WT) (UniProt Q9R1E0); assay: co-IP; 293T cells, endogenous FOXO1 silenced, FLAG-tagged FOXO1 vectors, hypoxia; cytoplasmic and nuclear fractions; IP, immunoblot
[6] = molecular target: FOXO1 (endogenous, porcine granulosa cells) (porcine (endogenous in porcine GCs)) (UniProt A4L7N3); assay: co-IP; endogenous proteins, cells under normoxia (21% O2); blot for p-STAT3 (Tyr705) (Fig. S8)
[7] = molecular target: FOXO1 (endogenous, porcine granulosa cells) (porcine (endogenous in porcine GCs)) (UniProt A4L7N3); assay: co-IP; endogenous proteins, cells under hypoxia (1% O2); blot for p-STAT3 (Tyr705) (Fig. S8)

Substance: STAT3 (endogenous, 293T cells) (from UniProt P40763 1-770)
binding [5]: binds

Substance: STAT3 phosphorylated at Tyr705 (endogenous, porcine granulosa cells) (from UniProt Q19S50 1-770)
binding [6]: no binding (condition: under normoxia (21% O2))
binding [7]: binds

Second part, the substance after the results:

binding [1]: binds
binding [2]: binds
binding [3]: binds
Substance: STAT3 (endogenous, porcine granulosa cells) (from UniProt Q19S50 1-770)

binding [4]: binds
Substance: STAT3 (endogenous, NIH/3T3 cells) (from UniProt P42227 1-770)

binding [5]: binds
Substance: AKT1 (endogenous, 293T cells) (from UniProt P31749 1-480)
